The campaign covered roughly 45,000 compounds. About 65 (0.1%) were called active. Calls follow the shape of the dose curve; as a rule, active = well fitted activation curve with a large enough effect; inconclusive = small, poorly fitted or top-dose-only effect; inactive = no such curve, though single readings can be large or run the other way. Some of the results follow.
biological target: Galactocerebrosidase (Homo sapiens) (UniProt P54803); test: A Novel Cell-Based Assay to Identify Small Molecules for B -Galactocerebrosidase; conditions: 145M-Twi-hGALC-G270D cells (Twitcher mouse brain line with human GALC G270D), HMU-beta-Gal fluorescence, 48 h; series mostly up to 57.5 µM; activation: at the top concentration; also: 0% is about no effect; nearly all actives have a fitted effect of over 65% in size
UniProt P54803, sequence (P54803 whole entry, looked up): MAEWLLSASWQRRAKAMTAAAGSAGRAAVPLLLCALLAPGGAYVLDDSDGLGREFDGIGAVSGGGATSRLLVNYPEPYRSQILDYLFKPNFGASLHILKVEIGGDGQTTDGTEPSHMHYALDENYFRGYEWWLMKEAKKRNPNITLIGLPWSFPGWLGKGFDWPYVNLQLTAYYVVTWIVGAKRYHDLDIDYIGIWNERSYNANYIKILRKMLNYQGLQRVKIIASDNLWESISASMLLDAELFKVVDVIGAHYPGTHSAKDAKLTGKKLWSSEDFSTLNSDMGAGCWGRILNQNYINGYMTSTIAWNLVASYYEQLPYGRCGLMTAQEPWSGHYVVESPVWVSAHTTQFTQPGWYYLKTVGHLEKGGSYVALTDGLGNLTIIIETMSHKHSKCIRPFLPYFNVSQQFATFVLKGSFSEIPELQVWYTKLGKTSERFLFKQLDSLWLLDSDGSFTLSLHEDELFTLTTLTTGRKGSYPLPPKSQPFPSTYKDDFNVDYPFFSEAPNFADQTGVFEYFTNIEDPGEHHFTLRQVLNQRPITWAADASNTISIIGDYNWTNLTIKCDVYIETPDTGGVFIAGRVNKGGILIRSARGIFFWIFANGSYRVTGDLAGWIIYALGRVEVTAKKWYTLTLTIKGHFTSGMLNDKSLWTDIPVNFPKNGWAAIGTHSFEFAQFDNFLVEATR
How it was run: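 Fluorescence readout: HMU-β-gal cleavage by mutant GALC (0.1 mM final, citrate/phosphate pH 5.2 with 1 mg/mL taurocholate), stopped with carbonate/bicarbonate plus Triton X-100. Cells: murine Twitcher 145M-Twi expressing human G270D GALC; qHTS for activators.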

activation, inactive:
CNC(=O)Cn1nc(-c2ccc(Cl)cc2)c2ccccc2c1=O -12%
COc1ccc(-c2nc(CCNC(=O)c3cccs3)cs2)cc1 -10.5%
CS(=O)(=O)N(CC(=O)Nc1ccc(Br)cc1)c1ccccc1Br -26.4%
COc1cccc(N2CCN(C(=O)C3CCN(S(=O)(=O)c4cccc5nonc45)CC3)CC2)c1 4.33%
Cc1nn(C)c2c1c(-c1ccccc1)cc(=O)n2Cc1ccccc1Cl -6.34%
Cc1cc(NC(=O)CCNS(=O)(=O)c2ccc3c(c2)CCCC(=O)N3)ccc1Br -43.6%
Cc1ccc(CN(C(=O)COc2ccc(Cl)cc2)c2ccccn2)o1 2.98%
CCCCC(CC)CNC(=O)CN(C)S(=O)(=O)c1ccc2c(c1)c(=O)n(C)c(=O)n2C (stereo not given) -0.0471%
COc1ccc(NC(=O)CSC2=Nc3ccccc3C3=NC(CCC(=O)NCc4ccc(F)cc4)C(=O)N23)cc1Cl (stereo not given) -17.7%
CCOC(=O)c1ccc(NC(=O)CC2Sc3ccc(C(F)(F)F)cc3NC2=O)cc1 (stereo not given) -12.4%
COc1ccc(S(=O)(=O)Nc2ccc3oc4c(c3c2)C(=O)CC(C)(C)C4)cc1 -14.5%
CCCCN(C)C(=O)Cn1c(C2CC(=O)N(c3ccc(C)cc3)C2)nc2ccccc21 (stereo not given) -21.3%
COc1cccc(C(=O)Nc2cccc(NC(=O)c3ccc(Cl)cc3Cl)c2)c1 -14%
CCOc1ccccc1NC(=O)c1c(NCc2ccc(C)o2)sc2c1CCC(C)C2 (stereo not given) -6.17%
CCCOc1ccc(-c2nn(-c3ccccc3)cc2C2NC(=O)NC(C)=C2C(=O)OC)cc1 (stereo not given) -37.8%
CCc1ccc(C(=O)c2cn(CC(=O)Nc3cc(OC)ccc3OC)c3ccc(C)cc3c2=O)cc1 -4.96%
Cc1cccc(NS(=O)(=O)c2ccc3c(c2)[C@H]2C=CC[C@H]2[C@@H](c2ccc(F)cc2)N3)c1 -12.3%
Cc1ccc(C)c(NC(=O)Cn2c(=O)nc(-c3ccccc3)c3ccccc32)c1 -8.65%
CCOc1ccc(CNC(=O)CCCn2nc(C)c3sc4ccccc4c3c2=O)cc1 -17.4%
CCC(C)Nc1sc(S(=O)(=O)CC)nc1S(=O)(=O)c1ccc(C)cc1 (stereo not given) -10.5%
COC(=O)c1cc(S(=O)(=O)NCC2CCN(Cc3ccc(C)cc3)CC2)cn1C -12.2%
O=C(CCS(=O)(=O)c1cc2c(cc1Cl)NC(=O)CO2)NCCc1ccc(Cl)cc1 -9.85%
CCCCN(C)C(=O)C1CCC(CNS(=O)(=O)c2ccc3c(c2)CC(C)N3C(C)=O)CC1 (stereo not given) -3.31%
COc1ccc(NC(=O)CSc2nc(-c3ccco3)cc(C(F)(F)F)n2)c(OC)c1 -2.74%
CCN(CC)C(=O)Cn1c(SCCOc2ccc(Cl)cc2)nc2ccccc21 -26.3%
CCCc1nn2c(=O)cc(COc3ccc(/C=C(\C#N)C(=O)Nc4ccc(F)cc4)cc3)nc2s1 -6.07%
COc1ccc(NC(=O)c2ccc(CNS(=O)(=O)c3ccc4c(c3)C(C)(C)C(=O)N4C)cc2)cc1 -36.1%
CC(=O)N1c2ccccc2C(=O)C1N1CCN(c2ccc(F)cc2)CC1 (stereo not given) -9.29%
Cc1ccc(Cl)cc1NCc1nnc2n1CCCCC2 0.975%
O=C(NCCc1csc(-c2cccc(F)c2)n1)c1ccc(Br)o1 -32%
O=C1CC(c2nc(-c3cccc(Cl)c3)no2)CN1c1ccc2c(c1)OCCO2 (stereo not given) -12.4%
COc1cccc(-n2c(=O)c3c(C)c(C(=O)N(C)C)sc3n(CC(=O)Nc3ccc(C)cc3Cl)c2=O)c1 5.01%
CC(C)Oc1ccc(CNC(=O)CCn2c(=O)c3cccn3c3ccc(F)cc32)cc1 -14.7%
O=C(Nc1ccc2c(c1)N(C1CCCC1)C(=O)c1ccccc1S2)c1cccc(F)c1 -19.1%
Cc1c(C)n(Cc2ccccc2)c2ccc(C(=O)NCCc3ccccc3Cl)cc12 -5.42%
CC(C)OCCCNC(=O)CN1C(=O)CSc2ccc(S(=O)(=O)N3CCCCC3)cc21 16.3%
COc1cccc(CNC(=O)C2CCCN(c3ncnc4onc(-c5ccc(F)cc5)c34)C2)c1 (stereo not given) -12.5%
CCOc1ccccc1CNC(=O)CCc1cn(Cc2ccc(Cl)cc2)c2ccccc12 -6.66%
CCN(C(=O)Cn1c(=O)oc2cc(S(=O)(=O)N3CCCC3)ccc21)c1cccc(C)c1 -13.8%
Cc1ccc(-n2nnnc2C2CCN(S(=O)(=O)c3ccc(OC(F)(F)F)cc3)CC2)cc1 -5%
Cc1n[nH]c(C)c1S(=O)(=O)N(CC(=O)NCc1ccccc1Cl)c1ccc(C(C)C)cc1 -1.06%
COc1ccc(CNC(=O)c2ccc3[nH]c(C)c(C)c3c2)c(OC)c1 0.797%
CCOc1cccc(CNc2ccc(O)cc2)c1OCc1ccccc1Cl -14.7%
N#C/C(=C\c1ccc(-c2ccc(F)cc2F)o1)c1nc2ccccc2[nH]1 -17.2%
COc1ccc(C(=O)Nc2ccc(OCc3cc(=O)n4ccccc4n3)cc2)cc1 -20.6%
Cc1cc(C)cc(NC(=O)CN(C)S(=O)(=O)c2ccc3[nH]c4c(c3c2)CCCC4)c1 -19%
CCOc1ccc(CCNC(=O)c2c(C)oc3ncnc(N4CCOCC4)c23)cc1 -5.78%
COCCCNC(=O)CSc1nc2ccccc2c(=O)n1Cc1ccco1 -19.9%
Cc1ccc(NC(=O)CN2C(=O)COc3ccc(S(=O)(=O)N4CCCCCC4)cc32)cc1C 0.472%
Cc1ccc(C)c(N2CCN(C(=O)CCS(=O)(=O)c3ccc4c(c3)CC(=O)N4C)CC2)c1 -10.5%
COc1ccc(-c2onc(C)c2C)cc1S(=O)(=O)NCc1ccc(Br)cc1 2.38%
CCN(CC)CCOC(=O)C(c1ccccc1)C1CCCCC1 (stereo not given) 6.5%
CCc1nnc2c(NCCc3ccc(OC)c(OC)c3)nc3ccccc3n12 -17%
OC[C@H]1O[C@@H](n2cnc3c(=S)nc[nH]c32)[C@H](O)[C@@H]1O -14.8%
CC(Oc1ccc(F)cc1)C(=O)Nc1cc(-c2ccc(F)c(F)c2)no1 (stereo not given) -6.36%
Cc1ccc(OCC(=O)N(Cc2ccco2)C2CCS(=O)(=O)C2)cc1 (stereo not given) -6.23%
Cc1ccc(S(=O)(=O)NCC2CCC(C(=O)N(C)Cc3ccccc3)CC2)cc1 (stereo not given) -44.5%
COc1cccc(C2CC(=O)Nc3c2c(=O)n(C)c2ncnn32)c1OC (stereo not given) -8.15%
COC(=O)c1c(NC(=O)COc2cc(C)c(Cl)c(C)c2)sc2c1CCCC2 -15.7%
COc1ccc(OC)c(S(=O)(=O)Nc2cc3c(C(C)=O)c(C)oc3c3ccccc23)c1 -29.7%

Reference: PubChem BioAssay AID1159614 (National Center for Advancing Translational Sciences (NCATS), 2016)
